# Measured values from PubChem BioAssay AID1159614 (National Center for Advancing Translational Sciences (NCATS), 2016).
# The campaign covered roughly 45,000 compounds. About 65 (0.1%) were called active. The call rests on the fitted dose curve; in most records, active means well fitted activation curve with a large enough effect; inconclusive means small, poorly fitted or top-dose-only effect; inactive means no such curve, though single readings can be large or run the other way. The list shows a part of the results.
# Molecular target: Galactocerebrosidase (Homo sapiens) (UniProt P54803)
# Assay: A Novel Cell-Based Assay to Identify Small Molecules for B -Galactocerebrosidase; further: 0% is about no effect; nearly all actives have a fitted effect of over 65% in size
# Details: 145M-Twi-hGALC-G270D cells (Twitcher mouse brain line with human GALC G270D), HMU-beta-Gal fluorescence, 48 h; series mostly up to 57.5 µM; activation: at the top concentration
# Summary of the method: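 Mutant human GALC (G270D), stably expressed in a Twitcher mouse brain cell line lacking endogenous GALC, is measured in live-treated cells via 6-hexadecanoylamino-4-methylumbelliferyl-β-galactoside hydrolysis (0.1 mM final, pH 5.2) with fluorescent detection.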
# UniProt P54803, sequence (P54803 whole entry, looked up): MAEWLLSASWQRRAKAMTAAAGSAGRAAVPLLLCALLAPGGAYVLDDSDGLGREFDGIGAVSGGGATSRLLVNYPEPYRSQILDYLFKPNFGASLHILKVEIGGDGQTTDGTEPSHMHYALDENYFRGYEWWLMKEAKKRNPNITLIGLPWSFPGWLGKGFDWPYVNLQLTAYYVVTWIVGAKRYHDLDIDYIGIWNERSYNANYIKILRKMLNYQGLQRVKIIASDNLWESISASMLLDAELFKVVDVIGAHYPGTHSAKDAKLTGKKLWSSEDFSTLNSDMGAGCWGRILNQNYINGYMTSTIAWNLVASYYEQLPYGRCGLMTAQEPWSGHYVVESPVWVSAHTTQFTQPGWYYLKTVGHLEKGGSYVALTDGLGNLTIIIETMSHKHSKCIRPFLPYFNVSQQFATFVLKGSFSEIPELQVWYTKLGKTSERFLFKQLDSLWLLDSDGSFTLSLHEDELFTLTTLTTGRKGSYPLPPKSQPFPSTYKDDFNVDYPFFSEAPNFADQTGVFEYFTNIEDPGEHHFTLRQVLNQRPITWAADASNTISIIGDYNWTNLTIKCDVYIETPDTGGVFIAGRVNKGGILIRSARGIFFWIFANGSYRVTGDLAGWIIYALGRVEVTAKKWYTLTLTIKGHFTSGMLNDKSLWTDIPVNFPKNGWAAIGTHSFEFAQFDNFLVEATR
SMILES,activation,Potency
O=c1oc2ccc(Cl)cc2cc1-c1cn2c(n1)sc1ccccc12,inactive: -8.92%,
CCCCNC(=O)CCSc1nc(-c2ccc3c(c2)OCO3)cc(C(F)(F)F)n1,inactive: -15.3%,
COc1cccc(NC(=O)CSC2=Nc3ccccc3C3=NC(CC(=O)NCc4ccccc4OC)C(=O)N23)c1 (centres undefined),inactive: 3.44%,
COc1ccc(NS(=O)(=O)c2c(C)nc3scc(C)n3c2=O)cc1,inactive: -13%,
O=C(Nc1ccc2nc(SCC(=O)N3CCOCC3)sc2c1)c1cccc(F)c1,inactive: -18.1%,
Cc1cccc(OCC(=O)N(Cc2ccc(N(C)C)cc2)Cc2ccco2)c1C,inactive: -24%,
COc1ccc(C2C=C(c3ccccc3)Nc3nc(NC(=O)/C=C/c4ccccc4OC)nn32)cc1 (centres undefined),inactive: -4.21%,
Cc1ccnc2nc(NC(=O)c3ccccc3Cl)nn12,inactive: -16.7%,
OC[C@@H](O)[C@H](O)[C@H](O)[C@@H](O)CO,,inactive
CCOc1ccc(NC(=O)c2c(NCc3cccs3)sc3c2CCCCC3)cc1,inactive: -7.54%,
COC(=O)c1scc(-c2ccccc2)c1S(=O)(=O)Nc1ccc(C)c(Cl)c1,inactive: -10.4%,
CC(=O)c1cc(-c2ccccc2)n(CCC(=O)NC2CCCCC2)c1C,inactive: -10.8%,
CC12CN3CC(c4ccccc4)(CN(C1)C3c1ccc(Cl)cc1)C2=O (centres undefined),inactive: -0.982%,
O=C(NCC1CCCCN1)c1cc(OCC(F)(F)F)ccc1OCC(F)(F)F (centres undefined),inactive: -8.79%,
COc1ccccc1CNC(=O)c1ccc(CS(=O)c2ccccc2Cl)o1 (centres undefined),inactive: -11%,
CC1CCc2cc(F)cc3c(=O)c(C(=O)O)cn1c23 (centres undefined),inactive: -7.96%,
CCc1ccc(S(=O)(=O)c2nnn3c2nc(NC(C)C)c2cc(Cl)ccc23)cc1,inactive: -18.9%,
Cc1cccc(N(CC(=O)N(C)Cc2ccccc2)S(=O)(=O)c2ccccc2)c1C,inactive: -15.6%,
CCC(=O)N1CCc2cc(Br)cc(S(=O)(=O)N3CCCC(C(=O)Nc4ccc(OC)cc4OC)C3)c21 (centres undefined),inactive: 9.14%,
COc1ccc(NC(=O)C(=O)NCc2ccco2)c(OC)c1,inactive: -13.1%,
COc1ccc(N2CCN(c3oc(/C=C/c4ccccc4OC)nc3C#N)CC2)cc1,inactive: -10.7%,
O=C(Nc1ccc(C(=O)OCc2cc(=O)n3ccsc3n2)cc1)c1cccc(F)c1,inactive: -26.1%,
COc1ccc(Nc2c3c(nc4ccc(NC(=O)c5cc(Cl)ccc5OC)cc24)CCCC3)cc1OC,inactive: 0.362%,
Cc1cc(C)cc(NC(=O)N2CCC(N3CCN(Cc4ccccc4)C(=O)C3=O)CC2)c1,inactive: -6.21%,
CCOc1ccc(CC(=O)Nc2c(C(=O)c3ccc(F)cc3)oc3ccc(Cl)cc23)cc1OCC,inactive: -11.1%,

SMILES,activation,Potency
COc1ccc(OC)c(CNC(=O)C2CCN(S(=O)(=O)c3ccc4[nH]c(=O)oc4c3)CC2)c1,inactive: -8.02%,
CC(C)Oc1ccc(CNC(=O)c2cccc(NC(=O)c3nsc4ccccc34)c2)cc1,inactive: -11.2%,
COc1ccc(N2Cc3cccc(C(=O)Nc4cccc(F)c4)c3C2=O)cc1,inactive: -10.2%,
Cc1ccc(CNC(=O)c2c[nH]n3c(=O)c(Cc4ccc(F)cc4Cl)c(C)nc23)cc1,inactive: -9.58%,
Cc1nnc(N2CCN(c3cccc(C(F)(F)F)c3)CC2)c2c1nnn2Cc1ccccc1,inactive: -9.54%,
Cn1c(C(=O)N2CCC(C(=O)N3CCN(c4ccccc4)CC3)CC2)cc2sccc21,inactive: -9.06%,
Cc1noc2ncnc(NCc3ccc(Cl)cc3)c12,inactive: -12.2%,
Cc1cc(NC(=O)C2CCCN(S(=O)(=O)c3cn(C)cn3)C2)ccc1Br (centres undefined),inactive: -7.93%,
CN(C)c1ccc(C(=O)Nc2ccc(-c3nc4ccccc4o3)cc2)cc1,inactive: -3.55%,
Cc1ccc(-c2cc(NC(=O)C(C)Oc3ccccc3F)on2)cc1 (centres undefined),inactive: -13.6%,
Cc1ccc(CCNC(=O)c2cc3n(n2)CCCN(Cc2ccc(C)cc2)C3=O)cc1,inactive: -22.2%,
Cc1cccc(Cn2c(COc3ccc(Cl)cc3)nc3ccccc32)c1,inactive: -10.9%,
CCc1nnc(SCC(=O)Nc2cc(OC)ccc2OC)nc1CC,inactive: -10.7%,
CCN(Cc1ccccc1)C(=O)c1cc2c(=O)[nH]c3ccc(C)cc3c2s1,inactive: -35.3%,
Cc1ccc(NC(=O)N2CCN(c3ccc(Cl)c(Cl)c3)CC2)cc1,inactive: 4.19%,
CCOc1ccc(S(=O)(=O)N(CC(=O)NCCSc2ccc(C)cc2)c2ccccc2)cc1,inactive: -8.53%,
Cc1ccc(NC(=O)CSc2nc(=O)n(Cc3ccco3)c3c2CCC3)cc1F,inactive: 5.39%,
Cn1c(=O)c(=O)n(C)c2cc(N3CCCC3)c(NC(=O)c3ccccc3F)cc21,inactive: -6.95%,
O=C(Nc1sc2c(c1C(=O)Nc1cccc(Cl)c1)CCCC2)c1cccs1,inactive: -6.63%,
CCn1nc(-c2ccccc2)c(-c2ccccc2)c(C(=O)Nc2nc(C)c(C(C)=O)s2)c1=O,inactive: 1.31%,
CCC(=O)N1CCc2cc(CNC(=O)c3ccc(OC)cc3)ccc21,inactive: -8.84%,
COc1ccc(-c2nc(CN3CCC(C(=O)NCCc4ccccc4)CC3)c(C)o2)cc1OC,inactive: -8.4%,
CCCCn1cc(S(=O)(=O)c2ccc(C)c(C)c2)c(=O)c2cc(F)c(N(CC)CC)cc21,inactive: -7.15%,
Cc1ccc(NC(=O)c2cc(S(=O)(=O)NC3CCCCC3)ccc2F)cc1Cl,inactive: -13.1%,
